This is an account of results in PubChem BioAssay AID2060512 (Molecular Pharmacology Branch, DTP, NCI, 2025).

In the test the test system is 186277-243-T-J2-PDC complex spheroid viability. Put plainly: Anticancer human tumor 186277-243-T-J2-PDC patient-derived colon adenocarcinoma cell line growth inhibition [GQUAD]. The following applies: stronger effect = lower value. The text has this: DNA G-quadruplex Stabilizer Agents in Combinations in Complex Spheroids
A high-throughput screen of multi-cell type tumor spheroids was designed to identify active combinations of DNA G-quadruplex stabilizer agents and targeted small molecules. Complex spheroids include a stromal component modeled by human endothelial cells (HUVEC) and fibroblasts modeled by human mesenchymal stem cells (MSCs). The concentration ranges selected for each drug and investigational agent were based upon clinically achievable concentrations if the clinical Cmax of the agent was known.
Compounds. The drugs and investigational agents: pidnarulex (CX-5461; NSC782164), APTO-253 (NSC789042), BRACO-19 (NSC847499), peposertib (NSC802822), ceralasertib (NSC780249), elimusertib (NSC800525), camonsertib (NSC841442), AZD-1390 (NSC803789), olaparib (NSC753686), talazoparib (NSC767125), ART-558 (NSC835418), sotorasib (NSC818433), MRTX-1133 (NSC836407), SN-38 (NSC673596), topotecan (NSC609699), etoposide (NSC141540), doxorubicin (NSC123127), gemcitabine (NSC613327), 5-fluorouracil (NSC19893), paclitaxel (NSC125973), vemurafenib (NSC761431), panobinostat (NSC761190), R-306465 (JNJ-16241199; NSC773264), adavosertib (NSC754352), TP-3654 (NSC805149), carboplatin (NSC241240), KSQ-4279 (NSC840948), and staurosporine (NSC755774) were obtained from the National Cancer Institute (NCI) Developmental Therapeutics Program Chemical Repository (34). The FDA-approved anticancer drug set is available from the NCI Developmental Therapeutics Program. […] The stock solutions were prepared in dimethyl sulfoxide (DMSO, Sigma-Aldrich, St. Louis, MO, cat. D2650) at 800-fold the tested concentration and stored at -70 degrees C prior to their use. All drugs and investigational agents were tested over a range starting from a high concentration at or near the clinical Cmax and decreasing in half-log increments. If the clinical Cmax for an agent had not been determined, the highest concentration tested was 10 microM.
2.3 Cell Culture. All cells were maintained in an incubator at 37 degrees C and 5% CO2 with 95% humidity. The PDC lines were cultured according to standard operating procedures established by the NCI PDMR. All PDCs were thawed and cultured in Matrigel-coated flasks prepared with a working solution of 1X Ham's F-12 nutrient mix, without supplementation (Invitrogen, cat. 11765054), 100 U/mL penicillin-streptomycin (Invitrogen, cat. 15140122), and 2.5% Matrigel (Corning Inc., cat. 354248) for the first three passages. […]

A number of entries come with more than one value. The other results are left out here. There may be further records. The values listed for one entry repeat one measurement (runs, samples, wells, individuals or studies). Brackets with × stand for listed records that agree.
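Also: spheroids exposed to drugs for 7 days; 100% = DMSO vehicle control viability.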

For `Cc1[nH]c2ccc(F)cc2c1-c1nc2c3cccnc3c3ncccc3c2[nH]1`, the viability, T/C (compound alone 0.316 µM) was 98.1, 108 (2×), 91.6, 97, 95.2, 86.1, 93.8, 114, 104, 113, 106%.
Take `Cc1cnc(CNC(=O)c2c(=O)c3ccc(N4CCCN(C)CC4)nc3n3c2sc2ccccc23)cn1`: the viability, T/C (compound alone 0.1 µM) is given as 91, 85.9, 92.6, 96.4, 81.1, 87.3, 75.1, 102, 86, 77.5, 90.1, 79.2%.
Turning to `CN(C)c1ccc(Nc2c3ccc(NC(=O)CCN4CCCC4)cc3nc3cc(NC(=O)CCN4CCCC4)ccc23)cc1`, the viability, T/C reads like this: (compound alone 0.0316 µM) 100, 97.5, 96, 94.8, 83.2, 99.3, 101, 85, 115, 106, 103, 98.2%; (compound alone 3.16 µM) 110 (2×), 79.4, 89.2, 93.9, 96, 95.6, 99.9, 90.6, 104, 96.2, 95.7%.
